Our source for the binding signal values is article PMC6212790.

The other results are listed elsewhere or left out. At the low end of the ranking the order means little.

In the test the target is T1, GST-Rok (full length) (UniProt O34857).
T1 sequence: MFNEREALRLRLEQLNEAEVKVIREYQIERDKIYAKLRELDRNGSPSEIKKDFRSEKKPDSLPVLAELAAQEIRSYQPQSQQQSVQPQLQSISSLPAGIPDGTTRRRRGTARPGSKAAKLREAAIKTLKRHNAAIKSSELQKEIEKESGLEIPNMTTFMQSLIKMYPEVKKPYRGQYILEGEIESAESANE
Description: protein binding microarray.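 Also: rank score from −0.5 (least bound) to 0.5 (best bound).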 To be noted: Rok is a gene silencer of Bacillus subtilis; high values mean tight binding; most listed sequences are background and not binding sites; double strand, one strand shown.
Regarding CAGCCTTC, the binding signal was -0.357 E-score.
In the case of GTATGCAC it was 0.0133 E-score; in that of AGACACTG, -0.172 E-score; in that of AGGGTAGA, 0.16 E-score.
With CCCACTTA the figure was -0.0198 E-score; with AGATCCAT, 0.0551 E-score.
With CGGGTACG the figure was 0.0136 E-score; with CCGCGCAC, -0.267 E-score.
ATAGATGA: the binding signal is 0.142 E-score.
With GGTTAAAA the figure was 0.086 E-score; with GAGCTCCC, -0.192 E-score.
In the case of GGCAAAGA it was -0.245 E-score; in that of AGTTCGAG, 0.124 E-score.
Consider AGCCCTCC, for which the binding signal is -0.379 E-score.
AGGTGTAT gave a binding signal of 0.201 E-score.
In turn, CGAAGGTA came in with a binding signal of 0.00689 E-score.
As for CCCGGACG, the binding signal is -0.339 E-score.
Take GCGGATAA: the binding signal was -0.0484 E-score.
In the case of CTGCGCGC, the binding signal is -0.0594 E-score.
The sequence CCTTAAAC displayed a binding signal of -0.236 E-score.
With ATAGCCAC, the binding signal was -0.0983 E-score.
In the case of AACTTGGG it was -0.122 E-score; in that of CTGTCTGC, 0.0478 E-score.
With GTGGTATA the figure was 0.316 E-score; with TAATGCTA, 0.221 E-score.
In the case of GAGTCTGC, the binding signal was -0.296 E-score.
The sequence CAGTCGTC returned a binding signal of -0.0617 E-score.
Regarding TTCGAAAA, the binding signal is -0.169 E-score.
In turn, GAGGACGA gave a binding signal of -0.27 E-score.
In the case of CATAGTGC it was -0.127 E-score; in that of CCCATAGC, -0.117 E-score; in that of GTACGAGA, -0.0407 E-score.
Regarding AGAATTCT, the binding signal is 0.33 E-score.
In the case of CGTATTCC it was 0.0633 E-score.
CTGAGATA yielded a binding signal of 0.0758 E-score.
Take AGCTAGGA: the binding signal was -0.0554 E-score.
In the case of AAAGTAAC it was 0.0799 E-score.
With ATATCATG the figure was 0.234 E-score.
In the case of AAATACAT it was 0.348 E-score.
With CACGTGCC, the binding signal is -0.0911 E-score.
In the case of AGCCCGGA it was -0.16 E-score; in that of AAGGATTA, -0.112 E-score.
With ATATCATC, the binding signal amounted to 0.253 E-score.
As to GGATCCCA, the binding signal is -0.325 E-score.
In the case of TGTGCGAA it was -0.0566 E-score; in that of ATATCAGC, -0.0781 E-score; in that of CGCTAAGA, 0.109 E-score.
As to GGGGGACA, the binding signal was -0.316 E-score.
CTGCCGTA: the binding signal turned out to be 0.0216 E-score.
In the case of AACAGGCA it was -0.225 E-score; in that of AGGCATAC, 0.0929 E-score; in that of ACGCTGAG, -0.163 E-score.
With TACACCAA the figure was 0.217 E-score; with CCGAGAGC, -0.256 E-score; with GATTGTCC, -0.128 E-score.
In the case of AGAACGCC it was -0.0347 E-score; in that of CATACAAC, 0.0896 E-score; in that of GAGGCCAA, -0.194 E-score.
Sequence ATACAGCA showed a binding signal of 0.174 E-score.
In the case of CGGTATCC it was -0.102 E-score; in that of GGAGGATA, -0.18 E-score.
AGGCGTAT yielded a binding signal of -0.00773 E-score.
With GCATTTCC the figure was -0.366 E-score; with GGTCTCCA, -0.294 E-score; with CTACCAGC, 0.228 E-score.
With AGAAATTA the figure was 0.308 E-score.
With CGCACTGA the figure was 0.00319 E-score; with CTGGTAAC, 0.176 E-score; with AGTGTCTA, 0.0381 E-score.
For the sequence CCATTATA, the binding signal turned out to be 0.238 E-score.
With AATAGCGA, the binding signal was 0.0363 E-score.
In the case of GAGCGCGC it was -0.0491 E-score; in that of ACGCATTA, 0.241 E-score; in that of CCACTTAG, -0.19 E-score.
In the case of GGTCGACC it was -0.245 E-score; in that of CAGCCGAG, -0.162 E-score; in that of CTCTCATA, -0.0869 E-score.
With AACCCTAA the figure was -0.0824 E-score.
The sequence CCGGCCGG yielded a binding signal of -0.279 E-score.
For the sequence CTACGGGA, the binding signal was -0.0694 E-score.
In the case of ATTCATGC, the binding signal came out at 0.18 E-score.
The sequence ACGTCGCT came in with a binding signal of -0.102 E-score.
In the case of GGCGGCCC it was -0.317 E-score; in that of CCCGTCAG, -0.274 E-score.
In turn, ACAGTTAC gave a binding signal of 0.278 E-score.
In the case of ATGTTCGC it was -0.141 E-score.
As for CGATGCAG, the binding signal came to 0.136 E-score.
CCGTCAAA: the binding signal is -0.115 E-score.
With ATTAAATA the figure was 0.278 E-score; with CGTACTGA, -0.0141 E-score.
With AGATAGGC the figure was 0.223 E-score.
For the sequence CCCAGTCG, the binding signal is -0.307 E-score.
With CCGCGTGC the figure was -0.285 E-score; with CGCGCCTC, -0.338 E-score.
In turn, TACACCTA yielded a binding signal of 0.244 E-score.
With ATATAAAT the figure was 0.422 E-score.
Take ATTACTAA: the binding signal worked out at 0.357 E-score.
For CGAGTGCG, the binding signal is -0.23 E-score.
As for CTGTAGGA, the binding signal was 0.0759 E-score.
In the case of CCGAACCG it was -0.165 E-score.
With GAGTCGCA the figure was -0.166 E-score.
The sequence CTGAGCGA returned a binding signal of 0.00537 E-score.
In the case of CATAGACA it was 0.0191 E-score; in that of GAAATGAA, 0.111 E-score; in that of CTTCCAGC, -0.106 E-score.
In the case of AAAGAAAT it was -0.155 E-score; in that of TACAGCAA, 0.101 E-score; in that of GAAGATGC, -0.0105 E-score.
In the case of ATCCAGTC it was -0.0125 E-score; in that of ACCAAGAG, -0.082 E-score.
In turn, ATAGGCGA displayed a binding signal of 0.0448 E-score.
The sequence CCTGCCGC displayed a binding signal of -0.38 E-score.
With GCAGAGAC the figure was -0.215 E-score.
Sequence CCTCGATC returned a binding signal of -0.102 E-score.
With CAAAGGGC the figure was -0.32 E-score; with GAGTGCCA, -0.249 E-score; with AATTTAAT, 0.287 E-score.
In the case of CAACCATG it was -0.173 E-score; in that of ACTTGGAT, 0.0518 E-score; in that of AGGAAAGC, -0.252 E-score.
CTAAACAG: the binding signal was -0.0697 E-score.
With CGGAGCAG the figure was -0.086 E-score.
In the case of CCCGGCGG it was -0.367 E-score; in that of CTTCTGGA, -0.0733 E-score; in that of AGGGAAGC, -0.295 E-score.
With GCAAAAAC the figure was 0.0325 E-score.
Turning to AAGGTAAA, the binding signal was found to be 0.176 E-score.
In the case of GAGTTCGA, the binding signal was -0.107 E-score.
In the case of CTGTCACA it was -0.192 E-score.
In the case of ATCAGCCC it was -0.234 E-score; in that of ATTCATGA, 0.146 E-score.
With AGGCTTAG the figure was -0.21 E-score; with CTCAACAA, -0.0892 E-score; with ACAGCTCC, -0.191 E-score.
AGCCCCGG returned a binding signal of -0.431 E-score.
Consider CTAACCGA, for which the binding signal was -0.186 E-score.
In the case of ATTTGAGC it was -0.0145 E-score.
In the case of ATACTCTA it was 0.174 E-score.
ACCCCACT showed a binding signal of -0.312 E-score.
TACGTTCA registered a binding signal of 0.0564 E-score.
With CTGTCGAA, the binding signal amounted to 0.0417 E-score.
With GTTGTTCA the figure was 0.0472 E-score; with AGGAGAGA, -0.122 E-score.
In the case of ACTGTTCT it was 0.0222 E-score.
With ATATCACG the figure was 0.24 E-score.
Consider CGCAATAA, for which the binding signal turned out to be 0.185 E-score.
In the case of GGTCGGGA it was -0.156 E-score.
With ATAGCCGG the figure was -0.102 E-score; with CCCGGTAC, -0.0862 E-score; with GTTGGGGA, -0.187 E-score.
In the case of CTACCGAG, the binding signal came to 0.318 E-score.
With GAGTCGAA, the binding signal was -0.0875 E-score.
With CCACTGAG the figure was 0.0548 E-score; with GGGAGGAA, -0.192 E-score; with CGGTCCAC, -0.195 E-score.
Regarding CTCCGCCA, the binding signal is -0.14 E-score.
In the case of GCACCTCC it was -0.215 E-score; in that of CAACTGTG, -0.0366 E-score.
For the sequence ACGCCTCA, the binding signal was -0.126 E-score.
With CTTGTATA the figure was 0.219 E-score.
For the sequence CTCTCGGA, the binding signal was -0.0983 E-score.
Take CATAAGCG: the binding signal is -0.0592 E-score.
In the case of ACCAACTA it was 0.185 E-score; in that of ATCTGTTC, -0.0604 E-score.
In the case of TATCACGA it was 0.115 E-score; in that of ACGATGGG, -0.0978 E-score; in that of CTATGCTC, -0.158 E-score.
The sequence CGAGTCGA came in with a binding signal of -0.195 E-score.
Sequence GCATCAAC returned a binding signal of 0.0602 E-score.
In the case of CCCGTAAA it was 0.076 E-score; in that of ATAGCTCC, -0.156 E-score.
In the case of AGCTCTAA it was -0.106 E-score; in that of CAATTCGC, 0.0831 E-score; in that of GGTAATAC, 0.281 E-score.
AGCAATTC: the binding signal was 0.0581 E-score.
GCAGACGC displayed a binding signal of -0.181 E-score.
On to ATCGCAAA, for which the binding signal came to 0.0841 E-score.
With CAACCTAA the figure was -0.0627 E-score; with GCATCCCC, -0.271 E-score; with AGTCACAA, 0.086 E-score.
Sequence ACACCGGT displayed a binding signal of -0.00892 E-score.
In the case of CCATAGCC it was -0.27 E-score.
Regarding AGAACACC, the binding signal is -0.0908 E-score.
In the case of CTAAAACC it was -0.148 E-score.
Take CCATCATC: the binding signal is -0.308 E-score.
GAATTGCA returned a binding signal of -0.0598 E-score.
As for ACGGATTC, the binding signal came out at 0.00983 E-score.
Sequence CCATGCTC gave a binding signal of -0.345 E-score.
CCGCTAGA: the binding signal came out at 0.07 E-score.
In the case of AGGGTCCC it was -0.164 E-score; in that of TATGCATA, 0.235 E-score; in that of AAGATACT, 0.234 E-score.
Turning to GGAAGACA, the binding signal is -0.189 E-score.
The sequence CGTGTTTC had a binding signal of -0.161 E-score.
In the case of AGTATCCC it was -0.045 E-score.
Consider CGGATTGA, for which the binding signal is -0.0865 E-score.
In the case of GGCCCTGA it was -0.119 E-score.
With ATGCTGGG the figure was -0.0874 E-score.
AGTCGTGA came in with a binding signal of -0.195 E-score.
Regarding AGGTCGGG, the binding signal is -0.224 E-score.
In the case of ATACACAC it was 0.108 E-score.
With ATGTTATC the figure was 0.206 E-score; with AAAGGCCG, -0.157 E-score; with CGGCTTCC, -0.283 E-score.
In the case of CTCCTCTA it was -0.0263 E-score; in that of AATCCAGG, -0.0693 E-score.
The sequence CCTCCAAC showed a binding signal of -0.135 E-score.
With GAGCCAAA, the binding signal is -0.152 E-score.
In the case of CCGCTCTC it was -0.349 E-score; in that of TGATCAAA, 0.13 E-score.
In turn, AACTGAAC displayed a binding signal of 0.12 E-score.
In the case of AGCCTTAT it was -0.137 E-score; in that of ATGGTTCC, -0.111 E-score.
With CGAGTCAG the figure was -0.171 E-score; with ACGTCGAG, -0.0266 E-score; with ACGGTTGC, -0.00987 E-score.
With AGCTATTG the figure was 0.177 E-score.
The sequence AGCCGAAC showed a binding signal of -0.0778 E-score.
In the case of CACAAAAC, the binding signal came to 0.0504 E-score.
